Laboratory results as given in PubChem BioAssay AID1030 (National Center for Advancing Translational Sciences (NCATS), 2008).
About 16,000 (7.3%) of roughly 220,000 compounds were called active. Inconclusive results, whose numbers are uncertain, are shown with a selection of clear calls. Calls follow the shape of the dose curve; as a rule, active = well fitted inhibition curve with a large enough effect (not every such curve was filed as active); inconclusive = small, poorly fitted or top-dose-only effect, or another doubt; inactive = no such curve, though single readings can be large or run the other way. No potency is given beside an inconclusive call; the fits are too rough.
Potency is read from the fitted curve at half-maximal effect; tags tell the direction and shape of the fitted curve.

The compounds below were run against Aldehyde dehydrogenase 1A1 (Homo sapiens) (UniProt P00352) (assay: qHTS Assay for Inhibitors of Aldehyde Dehydrogenase 1 (ALDH1A1)). Details: Purified ALDH1A1, NADH fluorescence, propionaldehyde substrate; series mostly up to 75.3 µM.
UniProt P00352, sequence (P00352 whole entry, looked up): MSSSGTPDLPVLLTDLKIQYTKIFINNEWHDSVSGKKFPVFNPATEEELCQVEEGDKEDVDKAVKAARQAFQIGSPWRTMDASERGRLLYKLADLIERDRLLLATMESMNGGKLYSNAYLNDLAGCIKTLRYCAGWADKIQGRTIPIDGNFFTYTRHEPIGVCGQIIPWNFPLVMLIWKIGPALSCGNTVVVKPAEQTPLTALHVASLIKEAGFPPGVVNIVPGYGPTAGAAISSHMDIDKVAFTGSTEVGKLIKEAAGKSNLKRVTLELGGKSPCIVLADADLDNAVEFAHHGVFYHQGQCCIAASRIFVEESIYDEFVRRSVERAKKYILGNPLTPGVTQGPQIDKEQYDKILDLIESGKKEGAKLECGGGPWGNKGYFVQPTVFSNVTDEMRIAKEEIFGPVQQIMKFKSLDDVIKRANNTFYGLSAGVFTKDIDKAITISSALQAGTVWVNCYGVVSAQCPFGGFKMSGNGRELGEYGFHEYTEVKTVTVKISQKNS
For Cc1ccc(-c2c(C#N)c(N)nc3c2CCCC3)s1, the Potency was inconclusive [inhibitor, partial curve]. With CC(=O)NN1C(=O)/C(=C\c2ccccc2)SC1=S the Potency was “inactive”. In the case of CC(NC(=O)CNC(=S)N(Cc1cccs1)C1CCCC1)c1ccccc1 (stereo not given), the Potency is reported as active: 15.8 µM. With O=C(NCc1cccnc1)c1ccc(Cl)cc1[N+](=O)[O-] the Potency was “inactive”. With O=C(Nc1ccc2c(c1)OCCO2)C1CCN(c2nnnn2-c2ccccc2)CC1 the Potency was active: 3.55 µM. C[N+](C)(C)CCOP(=O)(O)OP(=O)([O-])OC[C@H]1O[C@@H](n2ccc(N)nc2=O)[C@H](O)[C@@H]1O was tested, and the Potency was “inactive”. For COc1ccc(-n2ccnc2SCC(=O)NCc2ccc(F)cc2)c(OC)c1, the Potency was “inactive”. Cc1cc(C)nc(/N=C(\N)N(Cc2ccccc2)Cc2ccccc2)n1 was tested, and the Potency was inconclusive [inhibitor, single point]. In the case of O=[N+]([O-])c1ccc(-c2csc(NN=C3CCCC3)n2)cc1, the Potency is reported as inconclusive [inhibitor, single point]. For Cc1ccc(NC(=O)COc2ccc(-n3cnnn3)cc2)cc1C, the Potency was inconclusive [inhibitor, partial curve]. With Cc1oc2nc(SCCCC(=O)NCCO)nc(N)c2c1C the Potency was “inactive”. For O=C(Nc1sc2c(c1C(=O)NCC1CCCO1)CCCC2)c1cccs1 (stereo not given), the Potency was inconclusive [inhibitor, single point]. CCN(CCCNC(=O)CCNC(=O)Cn1ccc2ccccc2c1=O)c1ccccc1 was tested, and the Potency was inconclusive [inhibitor, single point]. CCCN(CCC)CCc1cccc2c1CC(=O)N2 was tested, and the Potency was “inactive”. Cc1c(C(N)=O)sc(N)c1C(=O)OC(C)C was tested, and the Potency was “inactive”. In the case of Cc1ccc(C(=O)CSc2nc(C(C)C)nc3ccccc23)cc1, the Potency is reported as active: 28.2 µM. With O=C1c2c(O)ccc([N+](=O)[O-])c2C(=O)c2c([N+](=O)[O-])ccc(O)c21 the Potency was “inactive”. With O=C(Oc1cccc(C(=S)N2CCOCC2)c1)c1cccc([N+](=O)[O-])c1 the Potency was inconclusive [inhibitor, single point]. In the case of CCNc1ncc2nc(CCc3ccccc3)c(=O)n(Cc3ccc(F)cc3)c2n1, the Potency is reported as inconclusive [inhibitor, partial curve]. In the case of CC(C(=O)Nc1cc([N+](=O)[O-])ccc1Cl)N1CCN(c2ccc(O)cc2)CC1 (stereo not given), the Potency is reported as active: 7.08 µM. For Cc1nn(-c2ccccc2)c(C)c1/C=N/NC(=O)CSc1nc2ccccc2c(=O)n1-c1ccccc1, the Potency was inconclusive [inhibitor, partial curve, poor fit]. O=C(N/N=C/c1cn[nH]c1-c1ccc(Cl)cc1)c1ccc([N+](=O)[O-])cc1 was tested, and the Potency was inconclusive [inhibitor, partial curve]. For Cc1cc2n(n1)C(c1sccc1C)Nc1c(C)cccc1-2 (stereo not given), the Potency was inconclusive [inhibitor, single point]. In the case of Cc1[nH]c2ccc(C(=O)O)cc2c1C, the Potency is reported as inconclusive [inhibitor, single point]. In the case of O=S(=O)(c1ccc2ccccc2c1)N1CCN=C1SCc1cccnc1, the Potency is reported as inconclusive [inhibitor, partial curve]. With COCC(=O)Nc1nnc(-c2cccs2)s1 the Potency was inconclusive [inhibitor, single point]. For CSc1nc2c(c(=O)[nH]1)C(c1cccc(Cl)c1Cl)CC(=O)N2 (stereo not given), the Potency was inconclusive [inhibitor, full curve, poor fit]. With O=C(COc1ccc2ccccc2c1CN1CCOCC1)N1CCc2ccccc21 the Potency was “inactive”. In the case of CCCC(c1nnnn1C(C)(C)CC)N(Cc1ccco1)Cc1cc2ccc(OC)cc2[nH]c1=O (stereo not given), the Potency is reported as active: 31.6 µM. In the case of Cc1ccc2[nH]c(=O)c(C3C(C#N)=C(N)Oc4c3ccc3cccnc43)cc2c1 (stereo not given), the Potency is reported as inconclusive [inhibitor, single point]. COc1ccc(/C=N/NC(=O)c2cccnc2)cc1Cn1nc([N+](=O)[O-])c(Br)c1C was tested, and the Potency was inconclusive [inhibitor, single point]. For COc1ccc2c(c1)C(=O)[C@@H](OC(=O)N[C@H]1CCCc3ccccc31)[C@H](c1ccc(OC)c(Br)c1)O2, the Potency was active: 12.6 µM. With O=C1CC(=C(c2ccccc2)c2ccccc2)C(=O)N1CCN1CCN(c2cccc(Cl)c2)CC1 the Potency was inconclusive [inhibitor, partial curve]. In the case of C=CCC(C)(O)c1ccccc1 (stereo not given), the Potency is reported as “inactive”. With Cc1noc(C)c1C(=O)N1CCC[C@@]2(CCN(C(=O)Nc3cccc(F)c3)C2)C1 the Potency was “inactive”. For CN(Cc1cccs1)C(=O)CCc1ccc(S(=O)(=O)N2CCOCC2)cc1, the Potency was inconclusive [inhibitor, partial curve]. CCOC(=O)CC(NC(=O)Cn1nnc(-c2ccccc2Cl)n1)c1ccc(OC)cc1 (stereo not given) was tested, and the Potency was inconclusive [inhibitor, full curve, poor fit]. For COc1ccc(CCNC(=O)CCNS(=O)(=O)c2cccc3nonc23)cc1OC, the Potency was inconclusive [inhibitor, single point]. CCN(CC)C(=O)Cn1cc(C(=O)C(=O)NCC2COc3ccccc3O2)c2ccccc21 (stereo not given) was tested, and the Potency was inconclusive [inhibitor, single point]. For Cn1c(SCC(=O)N2CCCC2)nc2ccccc2c1=O, the Potency was inconclusive [inhibitor, partial curve, poor fit]. For COc1ccccc1S(=O)(=O)Nc1ccc(-c2nnc3n2CCCCC3)cc1, the Potency was inconclusive [inhibitor, single point]. In the case of O=C(Nc1ccc2c(c1)OCO2)C1CC(c2ccc(Cl)cc2)=NO1 (stereo not given), the Potency is reported as “inactive”. With O=C(COC(=O)C1CCC1)NCc1ccccc1Cl the Potency was inconclusive [inhibitor, single point]. For O=C1CCCc2nc3c(cc21)C(O)Oc1ccccc1-3 (stereo not given), the Potency was inconclusive [inhibitor, partial curve]. For COc1ccc(C2C(C(=O)Nc3ccccc3)=C(C)Nc3nc(CCCO)nn32)cc1 (stereo not given), the Potency was inconclusive [inhibitor, partial curve].
